In article PMC9911399, “Two distinct binding modes provide the RNA-binding protein RbFox with extraordinary sequence specificity” one finds binding signal data, which are given here for 31 molecules.

T1: RBFOX1 RRM (Homo sapiens, UniProt Q9NWB1 109-208)
T1 sequence: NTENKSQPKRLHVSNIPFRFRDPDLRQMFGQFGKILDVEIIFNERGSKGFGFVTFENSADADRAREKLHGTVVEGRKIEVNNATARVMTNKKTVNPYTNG

B1: UCGAGCU (DNA:RNA)
RNA: GGGAGACCGGAAUUCAGAUUGUCCUCGAGCUUUAAAUCCCGUCGUAGCCACCA
DNA 1: CAATCTGAATTCCGGTCTCCC
DNA 2: TGGTGGCTACGACGGGATT
B2: AAGUGAG (DNA:RNA)
RNA: B1 RNA with U25A, C26A, A28U, C30A, U31G
DNA 1: CAATCTGAATTCCGGTCTCCC
DNA 2: TGGTGGCTACGACGGGATT
B3: GUUCCGU (DNA:RNA)
RNA: B1 RNA with U25G, C26U, G27U, A28C, G29C, C30G
DNA 1: CAATCTGAATTCCGGTCTCCC
DNA 2: TGGTGGCTACGACGGGATT
B4: ACUGGAG (DNA:RNA)
RNA: B1 RNA with U25A, G27U, A28G, C30A, U31G
DNA 1: CAATCTGAATTCCGGTCTCCC
DNA 2: TGGTGGCTACGACGGGATT
B5: UGCCACU (DNA:RNA)
RNA: B1 RNA with C26G, G27C, A28C, G29A
DNA 1: CAATCTGAATTCCGGTCTCCC
DNA 2: TGGTGGCTACGACGGGATT
B6: UAGUUUG (DNA:RNA)
RNA: B1 RNA with C26A, A28U, G29U, C30U, U31G
DNA 1: CAATCTGAATTCCGGTCTCCC
DNA 2: TGGTGGCTACGACGGGATT
B7: GAGCACG (DNA:RNA)
RNA: B1 RNA with U25G, C26A, A28C, G29A, U31G
DNA 1: CAATCTGAATTCCGGTCTCCC
DNA 2: TGGTGGCTACGACGGGATT
B8: GCUUGGA (DNA:RNA)
RNA: B1 RNA with U25G, G27U, A28U, C30G, U31A
DNA 1: CAATCTGAATTCCGGTCTCCC
DNA 2: TGGTGGCTACGACGGGATT
B9: UGGACCU (DNA:RNA)
RNA: B1 RNA with C26G, G29C
DNA 1: CAATCTGAATTCCGGTCTCCC
DNA 2: TGGTGGCTACGACGGGATT
B10: UCUCAGC (DNA:RNA)
RNA: B1 RNA with G27U, A28C, G29A, C30G, U31C
DNA 1: CAATCTGAATTCCGGTCTCCC
DNA 2: TGGTGGCTACGACGGGATT
B11: ACAGGGC (DNA:RNA)
RNA: B1 RNA with U25A, G27A, A28G, C30G, U31C
DNA 1: CAATCTGAATTCCGGTCTCCC
DNA 2: TGGTGGCTACGACGGGATT
B12: CGGAGUG (DNA:RNA)
RNA: B1 RNA with U25C, C26G, C30U, U31G
DNA 1: CAATCTGAATTCCGGTCTCCC
DNA 2: TGGTGGCTACGACGGGATT
B13: GCACGGU (DNA:RNA)
RNA: B1 RNA with U25G, G27A, A28C, C30G
DNA 1: CAATCTGAATTCCGGTCTCCC
DNA 2: TGGTGGCTACGACGGGATT
B14: GACAGCC (DNA:RNA)
RNA: B1 RNA with U25G, C26A, G27C, U31C
DNA 1: CAATCTGAATTCCGGTCTCCC
DNA 2: TGGTGGCTACGACGGGATT
B15: GGAUCAC (DNA:RNA)
RNA: GGGAGACCGGAAUUCAGAUUGUCCGGAUCACUUAAAUCCCGUCGUAGCCACCA
DNA 1: CAATCTGAATTCCGGTCTCCC
DNA 2: TGGTGGCTACGACGGGATT
B16: AUGGUAC (DNA:RNA)
RNA: B15 RNA with G25A, G26U, A27G, U28G, C29U
DNA 1: CAATCTGAATTCCGGTCTCCC
DNA 2: TGGTGGCTACGACGGGATT
B17: GAUCGUG (DNA:RNA)
RNA: B15 RNA with G26A, A27U, U28C, C29G, A30U, C31G
DNA 1: CAATCTGAATTCCGGTCTCCC
DNA 2: TGGTGGCTACGACGGGATT
B18: UUUUAUC (DNA:RNA)
RNA: B15 RNA with G25U, G26U, A27U, C29A, A30U
DNA 1: CAATCTGAATTCCGGTCTCCC
DNA 2: TGGTGGCTACGACGGGATT
B19: UAAAGGA (DNA:RNA)
RNA: B1 RNA with C26A, G27A, C30G, U31A
DNA 1: CAATCTGAATTCCGGTCTCCC
DNA 2: TGGTGGCTACGACGGGATT
B20: UGUUGCG (DNA:RNA)
RNA: B1 RNA with C26G, G27U, A28U, U31G
DNA 1: CAATCTGAATTCCGGTCTCCC
DNA 2: TGGTGGCTACGACGGGATT
B21: UCAACAC (DNA:RNA)
RNA: B15 RNA with G25U, G26C, U28A
DNA 1: CAATCTGAATTCCGGTCTCCC
DNA 2: TGGTGGCTACGACGGGATT
B22: GCGCUUU (DNA:RNA)
RNA: B1 RNA with U25G, A28C, G29U, C30U
DNA 1: CAATCTGAATTCCGGTCTCCC
DNA 2: TGGTGGCTACGACGGGATT
B23: AUUAUGA (DNA:RNA)
RNA: B1 RNA with U25A, C26U, G27U, G29U, C30G, U31A
DNA 1: CAATCTGAATTCCGGTCTCCC
DNA 2: TGGTGGCTACGACGGGATT
B24: GGUGUGC (DNA:RNA)
RNA: B15 RNA with A27U, U28G, C29U, A30G
DNA 1: CAATCTGAATTCCGGTCTCCC
DNA 2: TGGTGGCTACGACGGGATT
B25: AUGUUUG (DNA:RNA)
RNA: B15 RNA with G25A, G26U, A27G, C29U, A30U, C31G
DNA 1: CAATCTGAATTCCGGTCTCCC
DNA 2: TGGTGGCTACGACGGGATT
B26: GGCUGAC (DNA:RNA)
RNA: B15 RNA with A27C, C29G
DNA 1: CAATCTGAATTCCGGTCTCCC
DNA 2: TGGTGGCTACGACGGGATT
B27: UGCAGAU (DNA:RNA)
RNA: B1 RNA with C26G, G27C, C30A
DNA 1: CAATCTGAATTCCGGTCTCCC
DNA 2: TGGTGGCTACGACGGGATT
B28: AAACCGA (DNA:RNA)
RNA: B15 RNA with G25A, G26A, U28C, A30G, C31A
DNA 1: CAATCTGAATTCCGGTCTCCC
DNA 2: TGGTGGCTACGACGGGATT
B29: AGCUUAA (DNA:RNA)
RNA: B15 RNA with G25A, A27C, C29U, C31A
DNA 1: CAATCTGAATTCCGGTCTCCC
DNA 2: TGGTGGCTACGACGGGATT
B30: GUUAAGU (DNA:RNA)
RNA: B1 RNA with U25G, C26U, G27U, G29A, C30G
DNA 1: CAATCTGAATTCCGGTCTCCC
DNA 2: TGGTGGCTACGACGGGATT
B31: CUGUGAC (DNA:RNA)
RNA: B15 RNA with G25C, G26U, A27G, C29G
DNA 1: CAATCTGAATTCCGGTCTCCC
DNA 2: TGGTGGCTACGACGGGATT

Positions count from the first letter of the chain named. The list shows a part of the results.

This assay addresses T1, RBFOX1 RRM. Briefly: EMSA; HiTS-Eq, 1 nM pool, 10 min; buffer printed only for the single-RNA assays: 10 mM Tris pH 7.5, 150 mM NaCl, 3.4 mM EDTA, 0.001% NP-40, 30 C. The note with it: tags: His6 N-terminal (pET28a); label: 5' 32P. In short, it runs like this:
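Relative association constants, normalised to the cognate motif, were derived by comparing read counts of each RNA species with those of the control reaction. The RNA sequenced was the free fraction, separated by 8% native PAGE after a 10 min equilibration in 50 µL of 1 nM 5′-radiolabelled RNA (7 randomized nucleotides) with increasing concentrations of purified wild-type or mutant RbFox RRM.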
For orientation: In EMSA bound probe runs differently from free probe, usually more slowly.
Take B1: the binding signal was 0.0133 KA relative to UGCAUGU. The value for B2 was 0.00568 KA relative to UGCAUGU. In the case of B3, the binding signal was 0.014 KA relative to UGCAUGU. To B4 belongs 0.00586 KA relative to UGCAUGU; to B5, 0.0106 KA relative to UGCAUGU; to B6, 0.0246 KA relative to UGCAUGU. As for B7, the binding signal was 0.0394 KA relative to UGCAUGU. To B8 belongs 0.0122 KA relative to UGCAUGU. Turning to B9, the binding signal was 0.0178 KA relative to UGCAUGU. Take B10: the binding signal is 0.0078 KA relative to UGCAUGU. Regarding B11, the binding signal was 0.0117 KA relative to UGCAUGU. As to B12, the binding signal was 0.0283 KA relative to UGCAUGU. On to B13, for which the binding signal was 0.0324 KA relative to UGCAUGU. The value for B14 was 0.0108 KA relative to UGCAUGU; that for B15 was 0.013 KA relative to UGCAUGU; that for B16 was 0.0115 KA relative to UGCAUGU. Regarding B17, the binding signal is 0.0183 KA relative to UGCAUGU.

Turning to B18, the binding signal was 0.00798 KA relative to UGCAUGU. Turning to B19, the binding signal is 0.00067 KA relative to UGCAUGU. In the case of B20, the binding signal was 0.0326 KA relative to UGCAUGU. Turning to B21, the binding signal is 0.00159 KA relative to UGCAUGU. The value for B22 was 0.0174 KA relative to UGCAUGU; that for B23 was 0.00658 KA relative to UGCAUGU; that for B24 was 0.0168 KA relative to UGCAUGU. With B25, the binding signal was 0.0211 KA relative to UGCAUGU. The value for B26 was 0.026 KA relative to UGCAUGU; that for B27 was 0.0169 KA relative to UGCAUGU; that for B28 was 0.00102 KA relative to UGCAUGU. Take B29: the binding signal was 0.00163 KA relative to UGCAUGU.

As for B30, the binding signal is 0.0112 KA relative to UGCAUGU. With B31, the binding signal was 0.00781 KA relative to UGCAUGU.
